# Measurements from paper PMC7819943, “Rice protein-binding microarrays: a tool to detect cis-acting elements near promoter regions in rice”.
# The list shows a part of the results.
# Biological target: T1, OsWOX13 (Oryza sativa, UniProt Q5QMM3 1-267)
# T1 sequence: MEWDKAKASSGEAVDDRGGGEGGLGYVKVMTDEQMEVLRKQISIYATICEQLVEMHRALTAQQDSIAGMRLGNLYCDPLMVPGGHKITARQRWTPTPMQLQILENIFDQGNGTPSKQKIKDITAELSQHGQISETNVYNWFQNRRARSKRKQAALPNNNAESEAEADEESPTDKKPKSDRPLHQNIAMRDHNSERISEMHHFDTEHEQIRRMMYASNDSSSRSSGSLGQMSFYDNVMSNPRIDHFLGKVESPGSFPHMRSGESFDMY
# Assay: protein-binding microarray (RPBM); PBS, 2% BSA, 51.3 ng/ul salmon testes DNA, 50 uM zinc acetate, 200 nM TF, 25 C, 1 h; high values mean tight binding
# Conditions: protein: recombinant; tags: N-terminal polyhistidine and DsRed monomer fusion (pET32a); label: CyDye5-dUTP incorporated in the synthesized complementary strand; 3' TTTTT single-stranded linker to array surface; dsDNA, one strand shown
# Method in brief: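 The binding signal is fluorescence intensity per feature, in arbitrary units, read on an Axon 4000B scanner. Polyhistidine- and DsRed-tagged transcription factors (N-terminal fusions) from E. coli BL21-CodonPlus were purified on Ni–NTA and applied at 200 nM for 1 h at 25 °C to a double-stranded, BSA-blocked custom Agilent array in buffer with 50 µM zinc acetate.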
row,Sequence,binding signal
1,CAACCCTTAATTTAATCCAGATCCCCAACCAAACCCACTCCGGAGTCACCTAGTGCAG,6540 fluorescence intensity (a.u.)
2,GGTTTCTAATCAACACATACATGGGCCGCGTGATTCTTGCCGGAGTCACCTAGTGCAG,6440 fluorescence intensity (a.u.)
3,TTTTCAGATTGATAGAGTGGCTGGAGCAGGAACAGATTTTCGGAGTCACCTAGTGCAG,15000 fluorescence intensity (a.u.)
4,AATCAGCTCTAAATTTAAATTGTGGCTGATAAATACGAGTCGGAGTCACCTAGTGCAG,4450 fluorescence intensity (a.u.)
5,TACCGCTCAAAATCTAATAATTGATATTATTGCATTGTACCGGAGTCACCTAGTGCAG,5920 fluorescence intensity (a.u.)
6,CGTCATAATTACCGGCTTTCCTTCCTTGCCCGGTTACCCCCGGAGTCACCTAGTGCAG,19700 fluorescence intensity (a.u.)
7,TGTCATGTTTATTATCTTAATTTTCTGGATTAAAATATACCGGAGTCACCTAGTGCAG,5770 fluorescence intensity (a.u.)
8,ATCAAAATTGAGGAGTTTCTATCAGGCTGTCTGCTCCTGTCGGAGTCACCTAGTGCAG,5210 fluorescence intensity (a.u.)
9,GGATCAGTTTAATTACAAGGTTGTCTGATCTATATATTGCCGGAGTCACCTAGTGCAG,4260 fluorescence intensity (a.u.)
10,CCTGATGAACAGGTGAACACAAGAAACCCAGGACCAAAATCGGAGTCACCTAGTGCAG,5250 fluorescence intensity (a.u.)
11,TTTGACTTATAAATGACTCTATGGTTTAGCCACTTACACCCGGAGTCACCTAGTGCAG,4060 fluorescence intensity (a.u.)
12,CAATATACTAACAAATTGTGACATGTCTAAGGTTTGGCATCGGAGTCACCTAGTGCAG,3210 fluorescence intensity (a.u.)
13,TGTGTCTTGATTAATTTTCTGTGAGCTCTTCATCTGGTCTCGGAGTCACCTAGTGCAG,23600 fluorescence intensity (a.u.)
14,CAAAATTGACGAACTGGATTTACTGTTTATAAATGAAAACCGGAGTCACCTAGTGCAG,41200 fluorescence intensity (a.u.)
15,GGTGCATGTATTGTATTAATTGGATTGATTCAAACAAAGACGGAGTCACCTAGTGCAG,12500 fluorescence intensity (a.u.)
16,TAAAATTACATATGTAATTTTAGGGACTTACAATGTAAATCGGAGTCACCTAGTGCAG,19900 fluorescence intensity (a.u.)
17,TACAAATTTCAATTCCATATACATCAAAAGATTCGGCGCACGGAGTCACCTAGTGCAG,6080 fluorescence intensity (a.u.)
18,ACTACCAATTAGTAGTAGCAAACGTACCATAGATGCATATCGGAGTCACCTAGTGCAG,6860 fluorescence intensity (a.u.)
19,AAAGATTGAAACTCTGAACATTTAGGACAACGAACATCATCGGAGTCACCTAGTGCAG,14000 fluorescence intensity (a.u.)
20,GTAAAATTGATGTTACTATATTTGTCATTAAACATAGTAGCGGAGTCACCTAGTGCAG,21000 fluorescence intensity (a.u.)
21,TTGTCCATCAATGGAGATGATGATGCCATGATCAAATGATCGGAGTCACCTAGTGCAG,5820 fluorescence intensity (a.u.)

row,Sequence,binding signal
1,CGTAATTTTGAATTGTTAGATCTATTATAAGATTTGTTTTCGGAGTCACCTAGTGCAG,20800 fluorescence intensity (a.u.)
2,ATATATTGTTTATTCAATTTATTTTCAAGAATATTCAGGACGGAGTCACCTAGTGCAG,5920 fluorescence intensity (a.u.)
3,TTGTCTGTAAATCTATAATTGATACGGAGTACAAAGTGTTCGGAGTCACCTAGTGCAG,12100 fluorescence intensity (a.u.)
4,GGATACTAATTTGGAGTATTAAACATACACTAATTACAAACGGAGTCACCTAGTGCAG,3820 fluorescence intensity (a.u.)
5,ACAAATTTGGAATCATGGGCATTCCAGTAATTTCACACCTCGGAGTCACCTAGTGCAG,9450 fluorescence intensity (a.u.)
6,ACCCGAGCCCTGACTGCAATTTACTCCGACGTGACCACTGCGGAGTCACCTAGTGCAG,3800 fluorescence intensity (a.u.)
7,TCGTAAATTAGTCCAGAGTTTTGGAATAGGTTTTATCATTCGGAGTCACCTAGTGCAG,3640 fluorescence intensity (a.u.)
8,CAATGATATGTCAATTAGATATGTCATGCTAGTTTCTTAGCGGAGTCACCTAGTGCAG,30100 fluorescence intensity (a.u.)
9,AAATAACAATAAATTAATCTACTTTCACATATGAACAACACGGAGTCACCTAGTGCAG,7040 fluorescence intensity (a.u.)
10,TGCAAACTGCAATTTGAAGCAAATTAAAGATTGTGAAAGTCGGAGTCACCTAGTGCAG,14400 fluorescence intensity (a.u.)
11,AGTCCAAATTACTACATATGTTCTTATATATCATGATGGTCGGAGTCACCTAGTGCAG,4600 fluorescence intensity (a.u.)
12,ATTCATCACGGCGAATTGACGGGCCACAATTTTAACAGTACGGAGTCACCTAGTGCAG,3800 fluorescence intensity (a.u.)
13,CACCAATCAGGGTTCCAAGTAGAAGAGGTGGGCAGAGAGCCGGAGTCACCTAGTGCAG,6870 fluorescence intensity (a.u.)
14,GAATAATCAATTAAAAGGTTACATTAGTGTAAAGTATGACCGGAGTCACCTAGTGCAG,16400 fluorescence intensity (a.u.)
15,ATTAACAGGATCTATATCACATGGAAAATATGAATACAGGCGGAGTCACCTAGTGCAG,5830 fluorescence intensity (a.u.)
16,ATATATATATATATATATATATATATCCTATTATTTCACTCGGAGTCACCTAGTGCAG,29900 fluorescence intensity (a.u.)
17,TAGTCAACAATTATTGAATACTCCCATAGCGTACTAGTAGCGGAGTCACCTAGTGCAG,4000 fluorescence intensity (a.u.)
18,AATGATTACAACCTACCTCTTCTCAGCGGGGTGTCCATTACGGAGTCACCTAGTGCAG,15200 fluorescence intensity (a.u.)
19,AGCCTTCCATGATTATTTGAGAGATATTTAGACTATCATTCGGAGTCACCTAGTGCAG,4000 fluorescence intensity (a.u.)
20,AGTACTAAATTAAATCATTTGTGGGAAGCTGGCGAGCCCGCGGAGTCACCTAGTGCAG,12800 fluorescence intensity (a.u.)
21,GCACTCCATCCTATCCGATCCGATCCGTCCATCACAACATCGGAGTCACCTAGTGCAG,4020 fluorescence intensity (a.u.)
